Data published in publication PMC9307175.
Results are given in words; binding and its absence hold for the method and conditions named. For some of these results: In cells and extracts the contact can be indirect. Some binding calls cover weakened binding; strength is not graded here. For some of these results: Tags and fused reporters may be left off the sequences shown.

How the values were obtained:
[1] = target: T1, chitin-binding domain (CBD)-tagged STAT2 (human (HeLa cDNA library)), P52630; assay: co-IP; conditions: remark: other sources report otherwise
[2] = target: T1, chitin-binding domain (CBD)-tagged …; assay: pull-down; both purified; conditions: remark: other sources report otherwise
[3] = target: STAT1-Flag/STAT2-CBD complexes isolated by Flag IP and chitin AP from IFNβ-treated transfected 293T cells (human | human (HeLa cDNA library)) (UniProt P42224); assay: co-IP
[4] = target: S-peptide-tagged vIRF-1 (vIRF-1-S), expressed in transfected 293T cells (human herpesvirus 8 (HHV-8)) (UniProt F5HF68); assay: co-IP

B1: IRF9, endogenous in 293T cells, Q00978 1-393 (protein)
chain: MASGRARCTRKLRNWVVEQVESGQFPGVCWDDTAKTMFRIPWKHAGKQDFREDQDAAFFKAWAIFKGKYKEGDTGGPAVWKTRLRCALNKSSEFKEVPERGRMDVAEPYKVYQLLPPGIVSGQPGTQKVPSKRQHSSVSSERKEEEDAMQNCTLSPSVLQDSLNNEEEGASGGAVHSDIGSSSSSSSPEPQEVTDTTEAPFQGDQRSLEFLLPPEPDYSLLLTFIYNGRVVGEAQVQSLDCRLVAEPSGSESSMEQVLFPKPGPLEPTQRLLSQLERGILVASNPRGLFVQRLCPIPISWNAPQAPPGPGPHLLPSNECVELFRTAYFCRDLVRYFQGLGPPPKFQVTLNFWEESHGSSHTPQNLITVKMEQAFARYLLEQTPEQQAAILSLV
binding [1]: binds | binding [2]: binds

B2: IRF9, endogenous in 293T cells (protein, UniProt Q00978 1-393)
chain: MASGRARCTRKLRNWVVEQVESGQFPGVCWDDTAKTMFRIPWKHAGKQDFREDQDAAFFKAWAIFKGKYKEGDTGGPAVWKTRLRCALNKSSEFKEVPERGRMDVAEPYKVYQLLPPGIVSGQPGTQKVPSKRQHSSVSSERKEEEDAMQNCTLSPSVLQDSLNNEEEGASGGAVHSDIGSSSSSSSPEPQEVTDTTEAPFQGDQRSLEFLLPPEPDYSLLLTFIYNGRVVGEAQVQSLDCRLVAEPSGSESSMEQVLFPKPGPLEPTQRLLSQLERGILVASNPRGLFVQRLCPIPISWNAPQAPPGPGPHLLPSNECVELFRTAYFCRDLVRYFQGLGPPPKFQVTLNFWEESHGSSHTPQNLITVKMEQAFARYLLEQTPEQQAAILSLV
binding [3]: binds

B3: Flag-tagged IRF9 (pCEBZ-IRF9-SF) (protein, UniProt Q00978 1-393)
chain: MASGRARCTRKLRNWVVEQVESGQFPGVCWDDTAKTMFRIPWKHAGKQDFREDQDAAFFKAWAIFKGKYKEGDTGGPAVWKTRLRCALNKSSEFKEVPERGRMDVAEPYKVYQLLPPGIVSGQPGTQKVPSKRQHSSVSSERKEEEDAMQNCTLSPSVLQDSLNNEEEGASGGAVHSDIGSSSSSSSPEPQEVTDTTEAPFQGDQRSLEFLLPPEPDYSLLLTFIYNGRVVGEAQVQSLDCRLVAEPSGSESSMEQVLFPKPGPLEPTQRLLSQLERGILVASNPRGLFVQRLCPIPISWNAPQAPPGPGPHLLPSNECVELFRTAYFCRDLVRYFQGLGPPPKFQVTLNFWEESHGSSHTPQNLITVKMEQAFARYLLEQTPEQQAAILSLV
binding [4]: binds
